Results published in PubChem BioAssay AID1347043 (National Center for Advancing Translational Sciences (NCATS), 2019).
Out of some 76,000 compounds screened, about 1,900 (2.5%) were called active. This list was built around the results that the source calls inconclusive (neither active nor inactive); the mix of calls is not that of the screen. The call rests on the fitted dose curve; in most records, active means well fitted inhibition curve with a large enough effect; inconclusive means small, poorly fitted or top-dose-only effect; inactive means flat fitted curve, though single readings scatter. Potencies beside an inconclusive call are fits to weak or partial responses and may not hold up.

The molecules below were run against Luciferin 4-monooxygenase (Photinus pyralis) (UniProt P08659) (assay: Firefly luciferase inhibition profiling of diverse chemical library using quantitative high-throughput screening). Conditions: purified P. pyralis luciferase, luminescence, biochemical; activity change, negative = inhibition: at 115 µM (top of the series) unless noted.
Sequence of UniProt P08659 (P08659 whole entry, looked up): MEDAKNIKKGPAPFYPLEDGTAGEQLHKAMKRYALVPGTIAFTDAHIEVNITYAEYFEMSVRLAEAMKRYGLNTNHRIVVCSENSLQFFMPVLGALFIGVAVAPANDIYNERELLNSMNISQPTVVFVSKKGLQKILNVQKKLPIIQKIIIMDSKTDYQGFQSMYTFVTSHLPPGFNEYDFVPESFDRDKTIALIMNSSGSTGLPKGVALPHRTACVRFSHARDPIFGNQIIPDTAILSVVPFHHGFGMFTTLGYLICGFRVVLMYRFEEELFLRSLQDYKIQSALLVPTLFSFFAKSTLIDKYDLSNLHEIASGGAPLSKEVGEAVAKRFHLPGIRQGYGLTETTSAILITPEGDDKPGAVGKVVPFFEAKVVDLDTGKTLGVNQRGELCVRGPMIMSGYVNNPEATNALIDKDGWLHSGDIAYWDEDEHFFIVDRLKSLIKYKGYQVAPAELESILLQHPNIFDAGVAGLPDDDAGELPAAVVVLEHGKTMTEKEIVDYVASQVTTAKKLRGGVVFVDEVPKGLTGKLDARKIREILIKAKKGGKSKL
Procedure, shortened: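 Luminescence read by CCD imaging after purified firefly luciferase (10nM final) was added to substrate buffer holding 10uM D-luciferin and 10uM ATP, pH 7.5, pre-dosed with compound.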
Further: nearly all actives have a fitted effect of over 65% in size.
On the % scale 0 is the no-effect control and ±100 the full control effect; potency means the concentration at half of the fitted maximal effect; tags describe the fitted curve by direction and shape.

Structure (SMILES)	Potency	activity change, negative = inhibition
Cc1nc(C)c(C(=O)N2CCC(Oc3ccc(-c4noc(-c5ccccc5)n4)cc3)C2)s1 (configuration not stated)	active: 5.62 µM	–
Cc1ccsc1C(=O)NC1CCCN(c2cc(-c3ccccc3)[nH]n2)C1 (configuration not stated)	inconclusive: 44.7 µM [inhibitor, partial curve]	–
Cc1ccsc1C(=O)Nc1ccc(-c2nnc3n2CCCC3)cc1	active: 35.5 µM	–
Cc1ccc(C(=O)N2CCC3(CC2)NCCc2c3[nH]c3ccccc23)cn1	–	inactive: -10.8%
Cn1cc(-c2cccc(CO)c2)c2nc(CNc3ccccc3)cn2c1=O	inconclusive: 112 µM [inhibitor, partial curve]	–
COCC(=O)Nc1ccc(-c2c(-c3cccc(OC)c3)nn(-c3ccccc3)c2OC(C)=O)cc1	inconclusive: 79.4 µM [inhibitor, partial curve]	–
c1cc2nc(-c3ccsc3)[nH]c2cn1	inconclusive: 126 µM [inhibitor, partial curve]	–
CC1(C(=O)NCc2cnccn2)CCc2cnc(Nc3ccccc3)nc21 (configuration not stated)	–	inactive: -4.23% [at 172 µM]
CN(C)S(=O)(=O)N1CCC(F)(c2nc(-c3ccccc3)no2)CC1	inconclusive: 50.1 µM [inhibitor, partial curve]	–
O=C(N[C@H]1CCN2C(=O)c3cc(-c4ccc(F)cc4F)ccc3NC(=O)[C@H]12)C1CCCC1	inconclusive: 44.7 µM [inhibitor, partial curve]	–
COc1ccc(-c2noc([C@@H]3Cc4nc[nH]c4CN3C(=O)c3ccc(F)cc3)n2)cc1	inconclusive: 141 µM [inhibitor, partial curve, poor fit]	–
CCn1ncc(NC(=O)Cn2ncc3cc(-c4cccc(F)c4F)ccc32)n1	inconclusive: 50.1 µM [inhibitor, partial curve]	–
CCCCN1C(=O)c2ccccc2C(C(=O)Nc2nc(C)cs2)C12CCCC2 (configuration not stated)	–	inactive: 0%
COCCN[C@@H]1C[C@@H]2c3[nH]c4ccccc4c3C[C@@H](C(=O)OC)N2[C@H](c2ccccc2)C1	inconclusive: 112 µM [inhibitor, single point]	–
O=C(Nc1ccc(Cl)nc1)c1ccc2ccnn2c1	inconclusive: 79.4 µM [inhibitor, partial curve]	–
CN(C)c1ccc2ncc(Nc3ccccc3-c3ccccc3)n2n1	inconclusive: 63.1 µM [inhibitor, full curve]	–
COc1ccc(S(=O)(=O)Nc2ccc(C)n(CC(=O)N(C)Cc3ccco3)c2=O)cc1	–	inactive: 11.1%
CCCn1ccnc1CN1CCCn2nc(-c3nc4ccccc4n3C)cc2C1	inconclusive: 28.2 µM [inhibitor, partial curve, poor fit]	–
CCn1cnnc1CC1CCCN(C(=O)COc2ccc(C)cc2)C1 (configuration not stated)	–	inactive: -12.8%
COc1ccc(C(=O)NC2CCCN(c3cc(-c4ccc(Cl)cc4)[nH]n3)C2)cc1 (configuration not stated)	inconclusive: 6.31 µM [inhibitor, full curve]	–
O=C1c2cnc(-c3ccccc3OCc3ccccc3)nc2OCCN1CC1CC1	inconclusive: 79.4 µM [inhibitor, partial curve]	–
CN(C)c1cccc(C(=O)Nc2ncc(-c3cnn(C)c3)c3c2OCC3)c1	inconclusive: 44.7 µM [inhibitor, full curve, poor fit]	–
CNc1nc2c(s1)C[C@]1(C)CCC([C@H](C)C(=O)N3CCSCC3)[C@H](O)[C@H]1[C@@H]2C (some centres not stated)	inconclusive: 79.4 µM [inhibitor, partial curve, poor fit]	–

Structure (SMILES)	Potency	activity change, negative = inhibition
CN(C)c1cccc(Nc2cc3c(cn2)CN(Cc2ccccc2)CCN3)c1	active: 22.4 µM	–
Cc1ccc(NC(=O)N2Cc3[nH]cnc3C[C@H]2c2nc(-c3ccc(Cl)cc3)no2)cc1	active: 39.8 µM	–
O=C(NCCCn1nccc1C1CC1)c1ccccc1C1CCNC1 (configuration not stated)	–	inactive: -2.29%
Cc1ccc(C(=O)Nc2cccn3nc(C4CCC4)nc23)cc1C	inconclusive: 39.8 µM [inhibitor, partial curve]	–
Cc1cn2nnc(C(=O)N3CCC(C(=O)Nc4ccc(C)c(C)c4)CC3)c2c(=O)[nH]1	inconclusive: 44.7 µM [inhibitor, partial curve, poor fit]	–
Cc1cnc(CCNC(=O)c2n[nH]c3ccccc23)n1C1CCCC1	–	inactive: 4.37%
CN1C[C@@H](NC(=O)CCC(=O)O)C[C@H]1c1nc(-c2ccc3ccccc3c2)no1	active: 31.6 µM	–
COc1ccc(-n2nc(C3CCCN(C(=O)c4ccccc4)C3)[nH]c2=O)cc1 (configuration not stated)	–	inactive: 1.35%
COc1ccc(CC(=O)N2Cc3[nH]cnc3C[C@H]2c2nc(-c3ccc4ccccc4c3)no2)cc1	inconclusive: 70.8 µM [inhibitor, partial curve]	–
CN(C)c1cccc(C(=O)NC2CCN(c3cn[nH]c(=O)c3)CC2)c1	inconclusive: 39.8 µM [inhibitor, partial curve]	–
CC(C)c1nc(C2Cc3ccccc3N2C(=O)NCc2ccco2)no1 (configuration not stated)	inconclusive: 56.2 µM [inhibitor, partial curve, poor fit]	–
COCCN(C)C[C@@H]1CN(C(=O)c2ccc(=O)n(C)c2)C[C@@H]1CO	–	inactive: -0.676%
O=C1NCCC[C@@H]1NC(=O)[C@@H]1CN(C(=O)C2CCCCC2)CCN1C(=O)c1cccc(F)c1	–	inactive: 6.21%
O=C(NCCn1ccn2nc(-c3ccc(F)cc3)cc2c1=O)c1ccco1	inconclusive: 12.6 µM [inhibitor, full curve]	–
COc1ccc(-c2cc(N3CCC(NC(=O)c4ccccn4)C3)n[nH]2)cc1 (configuration not stated)	inconclusive: 50.1 µM [inhibitor, partial curve]	–
O=C(NC1CCc2ccccc21)C1CCN(C(=O)c2ncn3c2COC(c2ccccc2)C3)CC1 (configuration not stated)	active: 39.8 µM	–
Cc1cn2nc(C(=O)Nc3ccc(C(F)(F)F)cc3)cc2c(N2CCSCC2)n1	–	inactive: -5.77%
COCCN1CCNc2cc(Nc3cccc(N(C)C)c3)ncc2C1	inconclusive: 25.1 µM [inhibitor, full curve, poor fit]	–
Cc1nn(-c2ccc(C(C)C)cc2)c(C)c1[C@@H]1C=C[C@@H](NC(=O)Nc2ccccc2)C1	active: 3.55 µM	–
COc1ccc(-c2cn3c(n2)CO[C@@H](CNC(=O)c2ccccc2OC)C3)cc1	inconclusive: 39.8 µM [inhibitor, partial curve]	–
CCc1cccc(Nc2nc(-c3ccc(OC)c(OC)c3)no2)c1	inconclusive: 44.7 µM [inhibitor, partial curve]	–
C[C@@H](NC(=O)Nc1ccccc1)c1onc(-c2ccc(Cl)cc2)c1C(=O)O	inconclusive: 100 µM [inhibitor, partial curve]	–
C[C@@H]1CN(c2cnc3ccccc3n2)CC[C@@]1(O)C1CCC1	active: 3.98 µM	–

Structure (SMILES)	Potency	activity change, negative = inhibition
O=C(Nc1cccc(-c2ccc(N3CCOCC3)nn2)c1)Nc1cccc(C(F)(F)F)c1	active: 1.78 µM	–
CC(c1nccs1)N(C)C(=O)c1csc2nc(-c3ccccc3Cl)cn12 (configuration not stated)	inconclusive: 44.7 µM [inhibitor, partial curve]	–
Cc1ccc(-c2noc([C@@H]3C[C@H](NC(=O)Nc4cccc(F)c4)CN3C)n2)cc1	active: 63.1 µM	–
COc1ccc(NC(=O)CCC2CCCN(C(=O)c3ccccc3SC)C2)cc1Cl (configuration not stated)	inconclusive: 56.2 µM [inhibitor, partial curve]	–
CN1CCC(N2CC3(CCC2=O)CCN(C(=O)c2ccccn2)CC3)C1 (configuration not stated)	inconclusive: 44.7 µM [inhibitor, partial curve]	–
COC(=O)c1ccc(NC(=O)N2CCCC(c3nn[nH]n3)C2)cc1 (configuration not stated)	–	inactive: 0%
O=C(NCCCN1CCOCC1)c1cccc2c1CCN2C(=O)Nc1ccc(F)cc1	active: 25.1 µM	–
Cc1ccc(-c2cc3c(=O)n(CCNC(=O)c4nn(C)c5ccccc45)ccn3n2)cc1C	inconclusive: 0.891 µM [inhibitor, full curve]	–
O=C(O)C(Cc1ccco1)n1cc(-c2nccs2)nn1 (configuration not stated)	–	inactive: 1.61%
c1cncc(-c2ccnc(NCCCn3nccc3C3CC3)n2)c1	inconclusive: 44.7 µM [inhibitor, partial curve]	–
Cc1cncc(C(=O)N2CCOc3c(O)cc(-c4nc5ccccc5s4)cc3C2)c1	inconclusive: 44.7 µM [inhibitor, partial curve]	–
Cc1ccc([S+](=O)([O-])N2CCc3nc(-c4ccc(Cl)cc4)nc(-c4ccccc4)c3C2)cc1	active: 28.2 µM	–
CCOC(=O)CCNC(=O)N1CCCC(c2nc(C(C)C)no2)CCNC(=O)CC1 (configuration not stated)	–	inactive: -3.21%
O=C(NCc1ccc2c(c1)OCO2)c1ccc(-c2ccc(N3CCSCC3)nc2)cc1	inconclusive: 39.8 µM [inhibitor, partial curve, poor fit]	–
O=C1c2c(nc(COc3ccc4c(c3)OCO4)n2Cc2ccccc2)NCCN1Cc1cccc(Cl)c1	–	inactive: 10.7%
CN1CCOc2c(C(=O)NCCc3cnc[nH]3)cc(-c3ccccc3)cc21	–	inactive: -11.4% [at 172 µM]
N#Cc1ccc(C(=O)N2CCC(n3cc(-c4nc(-c5ccccc5)no4)nn3)C2)cc1 (configuration not stated)	inconclusive: 35.5 µM [inhibitor, partial curve]	–
COc1ccccc1CC(=O)N1CCCc2ncc(C(=O)Nc3ccccc3)cc21	inconclusive: 89.1 µM [inhibitor, partial curve]	–
CCn1cc(S(=O)(=O)N2CCC3(CC2)CN(C2CCC2)CC3COC)cn1 (configuration not stated)	–	inactive: -10%
Cc1ccc(C(=O)Nc2cccc(-c3nnc4n3CCCC4)c2)c(C)c1	inconclusive: 44.7 µM [inhibitor, partial curve]	–
COc1ccc(-c2cc3nc4c(c(=O)n3[nH]2)CN(C(=O)Cc2ccccc2)CC4)cc1	inconclusive: 4.47 µM [inhibitor, full curve]	–
